Measured values from PubChem BioAssay AID1671194 (National Center for Advancing Translational Sciences (NCATS), 2021).
The campaign covered roughly 140,000 compounds. About 240 (0.17%) were called active. Inconclusive results, whose numbers are uncertain, are shown with a selection of clear calls. Calls follow the shape of the dose curve; as a rule, active = well fitted inhibition curve with a large enough effect; inconclusive = small, poorly fitted or top-dose-only effect; inactive = no such curve, though single readings can be large or run the other way. Potencies of inconclusive entries are doubtful fits and often do not repeat.

Experiment: Primary qHTS assay for inhibitors of alpha-synuclein gene (SNCA) expression; also: nearly all actives have a fitted effect of over 45% in size;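 as to activity change, negative = inhibition: plate controls were DMSO cells for no effect and cell-free wells for full effect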
Conditions: HEK-293 SNCA-luciferase knock-in, luminescence, 24 h; activity change, negative = inhibition: at 57.2 µM (top of the series) unless noted
Potency is read from the fitted curve at half-maximal effect; tags tell the direction and shape of the fitted curve.

Row | Compound | activity change, negative = inhibition | Potency
1 | COC[C@@H]1[C@H](C(=O)N2CCN(Cc3ccccc3)CC2)CCC(=O)N1C | inactive: -16.1% | 
2 | CN1CC2(CCCN(Cc3cccc4nonc34)C2)OC1=O (stereo unspecified) | inactive: 7.35% | 
3 | CCN(Cc1ccccc1)C(=O)C1CCN(S(=O)(=O)c2c(C)noc2/C=C/c2ccc(C)cc2)CC1 | inactive: -2.35% | 
4 | Cc1ccc(C)c(N2CCN(C(=O)c3ccc4[nH]c(C)c(C)c4c3)CC2)c1 |  | inconclusive: 39.8 µM [inhibitor, single point]
5 | Cc1ccc(NC(=O)CN2C(=O)CCc3cc(S(=O)(=O)N4CCCCC4)ccc32)cc1N(C)C |  | inconclusive: 17.8 µM [inhibitor, partial curve, poor fit]
6 | CC(C)Oc1ccc(CN2CCc3nc(N4CCN(C)CC4)[nH]c(=O)c3CC2)cc1 | inactive: 13% | 
7 | COc1ccc(CN2C[C@@H]3[C@H](C2)N(CC2CCOCC2)C(=O)C(C)(C)[S+]3(=O)[O-])cc1O | inactive: -0.233% | 
8 | Cc1ccc(OCc2nc(-c3ccc(C(=O)NCCc4ccc(S(N)(=O)=O)cc4)cc3)oc2C)cc1 |  | inconclusive: 0.631 µM [inhibitor, full curve]
9 | CN(C)C[C@@H]1CN(Cc2ccccc2)C[C@H]1NC(=O)C1CC=CC1 |  | inconclusive: 3.16 µM [inhibitor, partial curve, poor fit]
10 | CCc1ccc(CNC(=O)C2CCN(C(=O)N3CC(CC)Oc4ccc(C)cc43)CC2)cc1 (stereo unspecified) |  | inconclusive: 39.8 µM [inhibitor, single point]
11 | CC(=O)c1cc(CN2CCN(c3nnc(C(F)(F)F)s3)CC2)cs1 |  | inconclusive: 3.55 µM [inhibitor, single point]
12 | O=C(Nc1cccc(F)c1)[C@@H]1C[C@H](c2ccc(F)cc2)N([S+](=O)([O-])C2CC2)C1 | inactive: -22.7% [at 87.6 µM] | 
13 | CC(C)c1ccc(NC(=O)CSc2nc(=O)n(Cc3cccnc3)c3c2CCC3)cc1 |  | inconclusive: 17.8 µM [inhibitor, single point]
14 | Cc1ccccc1CN1CCCn2nc(C)c(-c3cccnc3N3CCOCC3)c21 |  | inconclusive: 14.1 µM [inhibitor, partial curve]
15 | COC(=O)C(CCSC)NC(=O)c1cc2c(n(-c3ccc(OC)cc3)c1=O)CC(C)(C)CC2=O (stereo unspecified) |  | inconclusive: 22.4 µM [inhibitor, single point]
16 | CCc1nncn1C1CCN(S(=O)(=O)c2cccc(OC)c2)CC1 |  | inconclusive: 20 µM [inhibitor, single point]
17 | C=CCCC(CN1CCOCC1)Oc1ccc(Cn2ccnc2)cn1 (stereo unspecified) |  | inconclusive: 10 µM [inhibitor, partial curve, poor fit]
18 | CN(C)CCOc1cccc2c1c(NC(=O)c1ccn[nH]1)nn2-c1ccc(F)cc1 | inactive: 25.1% | 
19 | COc1cc(F)c(CN2CC[C@@](O)(C3CC3)[C@H](C)C2)cc1OC |  | inconclusive: 3.55 µM [inhibitor, full curve, poor fit]
20 | Cc1nn(-c2ccccc2)c2sc(C(=O)Nc3cccc(O)c3)cc12 |  | inconclusive: 8.91 µM [inhibitor, full curve, poor fit]
21 | COc1ccccc1CN1CCCn2nc(C)c(-c3cnccc3C)c21 |  | inconclusive: 7.94 µM [inhibitor, full curve, poor fit]
22 | COC(=O)CCNC(=O)C1c2ccccc2C(=O)N(Cc2ccccc2)C12CCCC2 (stereo unspecified) | inactive: -6.3% | 

Row | Compound | activity change, negative = inhibition | Potency
23 | COc1cc(OC)c(Nc2c3c(nc4nc(-c5cccs5)nn24)CCCC3)cc1Cl |  | inconclusive: 39.8 µM [inhibitor, single point]
24 | CCOc1ccc(NS(=O)(=O)c2ccc3nc(-c4ccccc4)[nH]c3c2)cc1 | inactive: -21% | 
25 | O=C(Nc1cc(Cl)cc(Cl)c1)c1ccc(F)c(S(=O)(=O)NCc2ccccc2Cl)c1 |  | inconclusive: 39.8 µM [inhibitor, single point]
26 | CCc1ccc2c(c1)NC(c1cccnc1)=NC(c1ccc(C(C)(C)C)cc1)=N2 |  | inconclusive: 17.8 µM [inhibitor, partial curve, poor fit]
27 | O=C(COCc1cc(-c2ccc3c(c2)OCO3)on1)NCc1ccc(F)cc1 |  | inconclusive: 0.562 µM [inhibitor, single point]
28 | CSc1ccc(CCNC(=O)c2ccc(CS(=O)Cc3ccc(Cl)cc3)o2)cc1 (stereo unspecified) |  | inconclusive: 17.8 µM [inhibitor, partial curve, poor fit]
29 | COc1ccc(CN2Cc3[nH]cnc3C[C@H]2c2nc(-c3ccc(C(F)(F)F)cc3)no2)cc1 | inactive: -31.2% | 
30 | CSc1ccc(CCNC(=O)c2ccc(-n3c(C)cc4c3CCCC4)cc2)cc1 |  | inconclusive: 22.4 µM [inhibitor, single point]
31 | COc1ccc(C(=O)N2CCCCC(NC(=O)NCc3ccco3)C2)cc1 (stereo unspecified) |  | inconclusive: 15.8 µM [inhibitor, partial curve, poor fit]
32 | COCCCN1CC2(CCN(CC(=O)N3CCNCC3)CC2)CC1=O | inactive: -5.38% | 
33 | COc1cccc2c1C(=O)c1c(O)c3c(c(O)c1C2=O)C[C@@](O)(C(=O)CO)C[C@H]3O[C@H]1C[C@H](N)[C@H](O)[C@H](C)O1 |  | inconclusive: 21.5 µM [inhibitor, partial curve, poor fit]
34 | COc1ccc(N(C)C(=O)CCS(=O)(=O)c2cccc3nsnc23)cc1 |  | inconclusive: 7.08 µM [inhibitor, single point]
35 | O=C(NCC1CCCO1)c1noc(-c2ccc[nH]c2=O)n1 (stereo unspecified) | inactive: -18% | 
36 | O=C(Cc1csc(-c2ccccc2)n1)N[C@H](c1ccccn1)C1CC(O)C1 (stereo partly specified) | inactive: -9.82% | 
37 | COc1cccc(-c2cnc3[nH]cc(CC(N)=O)c3c2)c1 | inactive: 0.303% [at 87.6 µM] | 
38 | COc1cccc(CNC(=O)CCC(=O)N2Cc3cccc(OC)c3Oc3ncccc32)c1OC |  | inconclusive: 0.891 µM [inhibitor, full curve]
39 | CC(C)N[C@H]1C[C@@H](Cc2cc(-c3ccccc3)on2)C1(C)C | inactive: 101% [at 87.6 µM] | 
40 | Cc1cccc(CNc2ccnc(-c3cccc(C#N)c3)n2)c1 |  | inconclusive: 39.8 µM [inhibitor, single point]
41 | Cc1cccc(-n2nnnc2S(C)(=O)=O)c1 |  | inconclusive: 28.2 µM [inhibitor, single point]
42 | CCN1CCN(C(=O)c2cc(-c3ccccc3OC)c3nncn3n2)CC1 |  | inconclusive: 12.6 µM [inhibitor, single point]
43 | CNc1ncncc1-c1nc(-c2ccccc2)no1 | inactive: 51.3% | 
44 | CC(C)Cn1c(=O)c(C(=O)N2CCCC(C)C2)nc2cccnc21 (stereo unspecified) | inactive: 16.1% [at 87.6 µM] | 

Row | Compound | activity change, negative = inhibition | Potency
45 | COc1ccc2c(c1)CCc1c(C(=O)Nc3c(C)nn(Cc4ccc(C)cc4)c3C)noc1-2 |  | inconclusive: 39.8 µM [inhibitor, single point]
46 | Cc1ccc(C)c(NC(=O)c2cc(S(=O)(=O)NCCC3=CCCCC3)ccc2F)c1 |  | inconclusive: 39.8 µM [inhibitor, single point]
47 | Cc1ccc(-c2cc(N3CCCN(C(=O)CCc4ccccc4)CC3)n[nH]2)cc1C |  | inconclusive: 20 µM [inhibitor, single point]
48 | O=C(NCC(=O)N1CCCCC1)c1cccc(-c2ccsc2)c1 | inactive: 117% [at 87.6 µM] | 
49 | CN1c2cc(C(=O)N3CCN(c4ccccc4F)CC3)ccc2C(=O)N2CCCC21 (stereo unspecified) | inactive: -2.99% | 
50 | CCn1ccnc1CN1CCCC12CCN(c1ccc(C(F)(F)F)cn1)CC2 | inactive: -9.23% | 
51 | COc1ccc(-c2nnc(C[C@@H]3C[C@@H](C(C)C)[C@H](CN(C)CCC#N)C=C3C)o2)cc1 |  | inconclusive: 56.2 µM [inhibitor, single point]
52 | CCNc1ncc2nc(-c3cc(F)cc(F)c3)c(=O)n(CCc3ccccc3)c2n1 |  | inconclusive: 17.8 µM [inhibitor, single point]
53 | O=C1NC(=NC2CCCCC2)C2(CCCN([S+](=O)([O-])c3ccccc3)C2)N1c1cc(F)cc(F)c1 (stereo unspecified) |  | inconclusive: 7.94 µM [inhibitor, full curve, poor fit]
54 | O=C(NCCCN1CCN(c2ccccc2F)CC1)c1nnc(Cc2ccc(Cl)cc2Cl)o1 |  | inconclusive: 39.8 µM [inhibitor, single point]
55 | COc1ccccc1Nc1ncc2c(n1)CN(C(=O)c1ccccc1)CCN2 |  | inconclusive: 4.47 µM [inhibitor, partial curve, poor fit]
56 | C[C@@H](NC(=O)COc1ccccc1)c1c(-c2ccc(Cl)cc2)noc1C(=O)O |  | inconclusive: 4.47 µM [inhibitor, full curve]
57 | CN(C)c1ncc2c(n1)C(C)(C(=O)NCc1cccc(F)c1)CCC2 (stereo unspecified) |  | inconclusive: 22.4 µM [inhibitor, partial curve, poor fit]
58 | O=C(NCc1ccccc1F)c1ccc2c(c1)CN(C1CCC1)CCO2 |  | inconclusive: 1.41 µM [inhibitor, full curve, poor fit]
59 | COc1ccc(CN[C@@H]2C=C[C@@H](c3c(C)nn(-c4ccccc4)c3C)C2)cc1 | inactive: 33.8% [at 87.6 µM] | 
60 | O=C(NCC1CCCCC1)c1cn2cc(-c3ccccc3)sc2n1 | inactive: -9.62% | 
61 | CC(=O)N1CCN(C(=O)c2ccc3oc(-c4cccnc4)nc3c2)CC1 |  | inconclusive: 39.8 µM [inhibitor, single point]
62 | CN(Cc1ccc(F)cc1)c1ccc2ncc(Nc3ccc4c(c3)OCO4)n2n1 |  | inconclusive: 25.1 µM [inhibitor, single point]
63 | CN(c1cc(=O)c2ccnc(-c3cccc(C(F)(F)F)c3)c2o1)C1CCOCC1 | inactive: 7.25% [at 87.6 µM] | 
64 | Cc1nc2cc(-c3ccccc3)nn2c(C)c1CCC(=O)N1CCN(c2ccccc2)CC1 |  | inconclusive: 10 µM [inhibitor, partial curve, poor fit]
65 | COc1ccc2oc(-c3ccc(C)c(NC(=O)Cc4ccc(Cl)cc4)c3)nc2c1 | inactive: 45.5% | 
66 | COc1ccc(Nc2ccnc(N3CCC(C(=O)N(C)C)CC3)n2)cc1 |  | inconclusive: 14.1 µM [inhibitor, partial curve]
